# Test results published in the supplement of paper PMC4604168 (melanoma cell lines).
# The list shows a part of the results. Single values are uncertain, as repeats are few or missing.
# System: UACC257
# Assay: cell count relative to DMSO control; melanoma cells; higher = more viable cells
# Settings: library dose: standard library concentration; 72 h
# 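Note: cells treated in 1,536-well plates, then fixed and DAPI-stained, with nuclei counted from automated high-throughput microscope images.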
row,Structure (SMILES),cell count [%]
1,"Clc1ccc(Nc2nnc(Cc3ccncc3)c3ccccc23)cc1 [vatalanib] + Oc1nc(-c2ccc(C(F)(F)F)cc2)nc2c1CSCC2 [XAV939] (first compound 10 µM, partner dose 10 µM)",80.1
2,"Clc1ccc(Nc2nnc(Cc3ccncc3)c3ccccc23)cc1 [vatalanib] + O=C1NC(=O)/C(=C/c2ccc(-c3ccc(F)cc3O)o2)S1 [AS252424] (first compound 10 µM, partner dose 5 µM)",72.7
3,"Nc1cccc2c1CN(C1CCC(=O)NC1=O)C2=O (stereo unspecified) [lenalidomide] + COc1cc2c(Oc3ccc4[nH]c(C)cc4c3F)ncnc2cc1OCCCN1CCCC1 [cediranib] (first compound 5 µM, partner dose 2 µM)",93.7
4,"Clc1ccc(Nc2nnc(Cc3ccncc3)c3ccccc23)cc1 [vatalanib] + COc1ccc(COc2ccc(Cc3cnc(N)nc3N)cc2OC)cc1 [GW2580] (first compound 10 µM, partner dose 5 µM)",71.8
5,"COCC[n+]1c2c(n(Cc3cnccn3)c1C)C(=O)c1ccccc1C2=O + CN(C)S(=O)(=O)c1ccc2c(c1)/C(=C/c1cc3c([nH]1)CCCC3)C(=O)N2 [SU6656] (first compound 0.002 µM, partner dose 2 µM)",28.4
6,"Clc1ccc(Nc2nnc(Cc3ccncc3)c3ccccc23)cc1 [vatalanib] + Cn1cc(/C=C2\C(=O)Nc3cccnc32)c2ccccc21 [GW441756] (first compound 10 µM, partner dose 2 µM)",46.9

# System: UACC62
# Assay: as above
# Settings: library dose: standard library concentration; 72 h
row,Structure (SMILES),cell count [%]
1,"Clc1ccc(Nc2nnc(Cc3ccncc3)c3ccccc23)cc1 [vatalanib] + O=S(=O)(c1ccccc1)N(CC(F)(F)F)c1ccc(C(O)(C(F)(F)F)C(F)(F)F)cc1 [T0901317] (first compound 10 µM, partner dose 7 µM)",90
2,"Clc1ccc(Nc2nnc(Cc3ccncc3)c3ccccc23)cc1 [vatalanib] + Oc1cc(-c2nc(-c3ccccc3)[nH]c2-c2ccncc2)ccc1Cl [L779450] (first compound 10 µM, partner dose 1 µM)",51.1
3,"OCc1c[nH]c2ccccc12 [Indole-3-carbinol] + O=S(=O)(c1ccccc1)N(CC(F)(F)F)c1ccc(C(O)(C(F)(F)F)C(F)(F)F)cc1 [T0901317] (first compound 4 µM, partner dose 7 µM)",77.3
4,"Clc1ccc(Nc2nnc(Cc3ccncc3)c3ccccc23)cc1 [vatalanib] + COC(=O)c1sccc1S(=O)(=O)Nc1ccc(Nc2ccccc2)cc1OC [GSK0660] (first compound 10 µM, partner dose 5 µM)",74.9
5,"OCc1c[nH]c2ccccc12 [Indole-3-carbinol] + NCC(=O)Nc1ccc(-n2nc(C(F)(F)F)cc2-c2ccc3c(ccc4ccccc43)c2)cc1 [OSU03012] (first compound 4 µM, partner dose 5 µM)",73.3
6,"Clc1ccc(Nc2nnc(Cc3ccncc3)c3ccccc23)cc1 [vatalanib] + CCN(CC)CCCCNc1ncc2cc(-c3cc(OC)cc(OC)c3)c(NC(=O)NC(C)(C)C)nc2n1 [PD173074] (first compound 10 µM, partner dose 0.5 µM)",74.2
7,"OCc1c[nH]c2ccccc12 [Indole-3-carbinol] + CC(C)CCN1c2nc(Nc3cc(F)c(O)c(F)c3)ncc2N(C)C(=O)C1C [BID1870] (first compound 4 µM, partner dose 1 µM)",99.7
8,"OCc1c[nH]c2ccccc12 [Indole-3-carbinol] + O=C(O)C(=O)Nc1sc2c(c1C(=O)O)CCNC2 [TCS401] (first compound 4 µM, partner dose 8.33333 µM)",100
9,"Clc1ccc(Nc2nnc(Cc3ccncc3)c3ccccc23)cc1 [vatalanib] + COc1cc(N2CCC(N3CCN(C)CC3)CC2)ccc1Nc1ncc(Cl)c(Nc2ccccc2S(=O)(=O)C(C)C)n1 [NVP-TAE684] (first compound 10 µM, partner dose 0.4 µM)",81.4
10,"OCc1c[nH]c2ccccc12 [Indole-3-carbinol] + COc1ccc2c(c1)CCC1C2CCC2(C)C(NCCCCCCN3C(=O)C=CC3=O)CCC12 [U73122] (first compound 4 µM, partner dose 2 µM)",59.4
11,"OCc1c[nH]c2ccccc12 [Indole-3-carbinol] + N#Cc1c(O)c2c(-c3ccc(-c4ccccc4O)cc3)csc2[nH]c1=O [A769662] (first compound 4 µM, partner dose 10 µM)",93
12,"OCc1c[nH]c2ccccc12 [Indole-3-carbinol] + CCN(CC)CCCCNc1ncc2cc(-c3cc(OC)cc(OC)c3)c(NC(=O)NC(C)(C)C)nc2n1 [PD173074] (first compound 4 µM, partner dose 0.5 µM)",117
13,"OCc1c[nH]c2ccccc12 [Indole-3-carbinol] + Oc1cc(-c2nc(-c3ccccc3)[nH]c2-c2ccncc2)ccc1Cl [L779450] (first compound 4 µM, partner dose 1 µM)",57.1
14,"Clc1ccc(Nc2nnc(Cc3ccncc3)c3ccccc23)cc1 [vatalanib] + O=c1cc(-c2cccc3c2Sc2ccccc2S3)oc(N2CCOCC2)c1 [KU55933] (first compound 10 µM, partner dose 5 µM)",77.5
15,"OCc1c[nH]c2ccccc12 [Indole-3-carbinol] + O=C1NC(=O)/C(=C/c2ccc(-c3ccc(F)cc3O)o2)S1 [AS252424] (first compound 4 µM, partner dose 5 µM)",91.9
16,"OCc1c[nH]c2ccccc12 [Indole-3-carbinol] + CCc1ccc(CCOc2ccc(CC3SC(=O)NC3=O)cc2)nc1 [pioglitazone] (first compound 4 µM, partner dose 10 µM)",118
17,"OCc1c[nH]c2ccccc12 [Indole-3-carbinol] + COc1ccc(-c2ccc3c(N4CCOCC4)nc(N4C[C@@H](C)O[C@@H](C)C4)nc3n2)cc1CO [KU0063794] (first compound 4 µM, partner dose 0.1 µM)",70.7
18,"OCc1c[nH]c2ccccc12 [Indole-3-carbinol] + CCCCCCCCCCCC1=C(O)C(=O)C=C(O)C1=O [Embelin] (first compound 4 µM, partner dose 6 µM)",84.1
19,"Clc1ccc(Nc2nnc(Cc3ccncc3)c3ccccc23)cc1 [vatalanib] + CCCCCCCCCCCC1=C(O)C(=O)C=C(O)C1=O [Embelin] (first compound 10 µM, partner dose 6 µM)",108
20,"Clc1ccc(Nc2nnc(Cc3ccncc3)c3ccccc23)cc1 [vatalanib] + c1cc(-c2cnn3cc(-c4ccc(OCCN5CCCCC5)cc4)cnc23)ccn1 [Dorsomorphin] (first compound 10 µM, partner dose 2 µM)",65.2
21,"Clc1ccc(Nc2nnc(Cc3ccncc3)c3ccccc23)cc1 [vatalanib] + CCc1ccc(CCOc2ccc(CC3SC(=O)NC3=O)cc2)nc1 [pioglitazone] (first compound 10 µM, partner dose 10 µM)",74
22,"OCc1c[nH]c2ccccc12 [Indole-3-carbinol] + COC(=O)c1sccc1S(=O)(=O)Nc1ccc(Nc2ccccc2)cc1OC [GSK0660] (first compound 4 µM, partner dose 5 µM)",89.6
23,"Clc1ccc(Nc2nnc(Cc3ccncc3)c3ccccc23)cc1 [vatalanib] + O=C(Nc1ccccc1)c1cc([N+](=O)[O-])ccc1Cl [GW9662] (first compound 10 µM, partner dose 10 µM)",59
24,"OCc1c[nH]c2ccccc12 [Indole-3-carbinol] + c1cc(-c2cnn3cc(-c4ccc(OCCN5CCCCC5)cc4)cnc23)ccn1 [Dorsomorphin] (first compound 4 µM, partner dose 2 µM)",82.1
25,"OCc1c[nH]c2ccccc12 [Indole-3-carbinol] + O=c1cc(-c2cccc3c2Sc2ccccc2S3)oc(N2CCOCC2)c1 [KU55933] (first compound 4 µM, partner dose 5 µM)",87.6
26,"OCc1c[nH]c2ccccc12 [Indole-3-carbinol] + COc1cc2ncnc(Nc3ccc(Oc4ccccc4)cc3)c2cc1OC [SrcI1] (first compound 4 µM, partner dose 10 µM)",71.8
27,"OCc1c[nH]c2ccccc12 [Indole-3-carbinol] + Cn1cc(/C=C2\C(=O)Nc3cccnc32)c2ccccc21 [GW441756] (first compound 4 µM, partner dose 2 µM)",69.5
28,"OCc1c[nH]c2ccccc12 [Indole-3-carbinol] + Oc1nc(-c2ccc(C(F)(F)F)cc2)nc2c1CSCC2 [XAV939] (first compound 4 µM, partner dose 10 µM)",79.5
29,"Clc1ccc(Nc2nnc(Cc3ccncc3)c3ccccc23)cc1 [vatalanib] + N#Cc1c(O)c2c(-c3ccc(-c4ccccc4O)cc3)csc2[nH]c1=O [A769662] (first compound 10 µM, partner dose 10 µM)",82.5
30,"Clc1ccc(Nc2nnc(Cc3ccncc3)c3ccccc23)cc1 [vatalanib] + O=C(O)C(=O)Nc1sc2c(c1C(=O)O)CCNC2 [TCS401] (first compound 10 µM, partner dose 8.33333 µM)",97.7
